Assay results as given in the supplement of paper PMC8728848.
The list shows a part of the results.

Key:
Assay in all cases: glycan array binding signal (z-score within array); higher = stronger binding
Conditions in all cases: glycan notation: IUPAC condensed, linker removed
[1] = biological target: GlcNAc(a1-4)Gal(b1-4)GalNAc
Summary of the method: (§1)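 Negative Z-scores can be read as non-binding. The Z-score is calculated within each array and then averaged across arrays of one protein sequence at different concentrations or buffers and across linkers. Arrays, 3228 in all, were curated from the Consortium for Functional Glycomics database and kept only where the protein sequence was available.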

[2] = biological target: GlcNAc(a1-4)Gal(b1-4)GlcNAc
Summary of the method: as §1

[3] = biological target: GlcNAc(a1-4)Gal(b1-4)GlcNAc(b1-3)Gal(b1-4)Glc
Summary of the method: as §1

[4] = biological target: GlcNAc(a1-4)Gal(b1-4)GlcNAc(b1-3)Gal(b1-4)GlcNAc
Summary of the method: as §1

[5] = biological target: GlcNAc(a1-4)Gal(b1-4)GlcNAc(b1-3)Gal(b1-4)GlcNAc(b1-3)Gal(b1-4)GlcNAc
Summary of the method: as §1

[6] = biological target: GlcNAc(a1-4)Gal(b1-4)GlcNAc(b1-3)Gal(b1-4)[Fuc(a1-3)]GlcNAc(b1-3)Gal(b1-4)[Fuc(a1-3)]GlcNAc
Summary of the method: as §1

[7] = biological target: GlcNAc(a1-6)Gal(b1-4)GlcNAc
Summary of the method: as §1

[8] = biological target: GlcNAc(b1-2)Gal(b1-3)GalNAc
Summary of the method: as §1

[9] = biological target: GlcNAc(b1-2)Man(a1-3)[GlcNAc(b1-2)Man(a1-6)]Man(b1-4)GlcNAc(b1-4)GlcNAc
Summary of the method: as §1

[10] = biological target: GlcNAc(b1-2)Man(a1-3)[GlcNAc(b1-2)Man(a1-6)]Man(b1-4)GlcNAc(b1-4)[Fuc(a1-6)]GlcNAc
Summary of the method: as §1

[11] = biological target: GlcNAc(b1-2)Man(a1-3)[GlcNAc(b1-4)][GlcNAc(b1-2)Man(a1-6)]Man(b1-4)GlcNAc(b1-4)GlcNAc
Summary of the method: as §1

[12] = biological target: GlcNAc(b1-2)Man(a1-3)[GlcNAc(b1-4)][GlcNAc(b1-2)Man(a1-6)]Man(b1-4)GlcNAc(b1-4)[Fuc(a1-6)]GlcNAc
Summary of the method: as §1

[13] = biological target: GlcNAc(b1-2)[GlcNAc(b1-4)]Man(a1-3)[GlcNAc(b1-2)Man(a1-6)]Man(b1-4)GlcNAc(b1-4)GlcNAc
Summary of the method: as §1

[14] = biological target: GlcNAc(b1-2)[GlcNAc(b1-4)]Man(a1-3)[GlcNAc(b1-4)][GlcNAc(b1-2)Man(a1-6)]Man(b1-4)GlcNAc(b1-4)GlcNAc
Summary of the method: as §1

[15] = biological target: GlcNAc(b1-2)[GlcNAc(b1-4)]Man(a1-3)[GlcNAc(b1-4)][GlcNAc(b1-2)[GlcNAc(b1-6)]Man(a1-6)]Man(b1-4)GlcNAc(b1-4)GlcNAc
Summary of the method: as §1

[16] = biological target: GlcNAc(b1-2)[GlcNAc(b1-4)]Man(a1-3)[GlcNAc(b1-4)][GlcNAc(b1-2)[GlcNAc(b1-6)]Man(a1-6)]Man(b1-4)GlcNAc(b1-4)[Fuc(a1-6)]GlcNAc
Summary of the method: as §1

[17] = biological target: GlcNAc(b1-2)[GlcNAc(b1-6)]Man(a1-6)[GlcNAc(b1-2)Man(a1-3)]Man(b1-4)GlcNAc(b1-4)GlcNAc
Summary of the method: as §1

[18] = biological target: GlcNAc(b1-2)[GlcNAc(b1-6)]Man(a1-6)[GlcNAc(b1-2)Man(a1-3)]Man(b1-4)GlcNAc(b1-4)[Fuc(a1-6)]GlcNAc
Summary of the method: as §1

[19] = biological target: GlcNAc(b1-2)[GlcNAc(b1-6)]Man(a1-6)[GlcNAc(b1-4)][GlcNAc(b1-2)Man(a1-3)]Man(b1-4)GlcNAc(b1-4)GlcNAc
Summary of the method: as §1

[20] = biological target: GlcNAc(b1-3)Fuc
Summary of the method: as §1

[21] = biological target: GlcNAc(b1-3)Gal
Summary of the method: as §1

[22] = biological target: GlcNAc(b1-3)Gal(b1-3)GalNAc
Summary of the method: as §1

[23] = biological target: GlcNAc(b1-3)Gal(b1-4)Glc
Summary of the method: as §1

[24] = biological target: GlcNAc(b1-3)Gal(b1-4)GlcNAc
Summary of the method: as §1

[25] = biological target: GlcNAc(b1-3)Gal(b1-4)GlcNAc(b1-2)Man(a1-3)[GlcNAc(b1-3)Gal(b1-4)GlcNAc(b1-2)Man(a1-6)]Man(b1-4)GlcNAc(b1-4)GlcNAc
Summary of the method: as §1

[26] = biological target: GlcNAc(b1-3)Gal(b1-4)GlcNAc(b1-2)Man(a1-3)[GlcNAc(b1-3)Gal(b1-4)GlcNAc(b1-2)Man(a1-6)]Man(b1-4)GlcNAc(b1-4)[Fuc(a1-6)]GlcNAc
Summary of the method: as §1

[27] = biological target: GlcNAc(b1-3)Gal(b1-4)GlcNAc(b1-2)[GlcNAc(b1-3)Gal(b1-4)GlcNAc(b1-6)]Man(a1-6)[GlcNAc(b1-3)Gal(b1-4)GlcNAc(b1-2)Man(a1-3)]Man(b1-4)GlcNAc(b1-4)GlcNAc
Summary of the method: as §1

[28] = biological target: GlcNAc(b1-3)Gal(b1-4)GlcNAc(b1-3)Gal(b1-4)GlcNAc
Summary of the method: as §1

[29] = biological target: GlcNAc(b1-3)Gal(b1-4)GlcNAc(b1-3)Gal(b1-4)GlcNAc(b1-2)Man(a1-3)[GlcNAc(b1-3)Gal(b1-4)GlcNAc(b1-3)Gal(b1-4)GlcNAc(b1-2)Man(a1-6)]Man(b1-4)GlcNAc(b1-4)GlcNAc
Summary of the method: as §1

[30] = biological target: GlcNAc(b1-3)Gal(b1-4)GlcNAc(b1-3)Gal(b1-4)GlcNAc(b1-2)Man(a1-3)[GlcNAc(b1-3)Gal(b1-4)GlcNAc(b1-3)Gal(b1-4)GlcNAc(b1-2)Man(a1-6)]Man(b1-4)GlcNAc(b1-4)[Fuc(a1-6)]GlcNAc
Summary of the method: as §1

[31] = biological target: GlcNAc(b1-3)Gal(b1-4)GlcNAc(b1-3)Gal(b1-4)GlcNAc(b1-2)[GlcNAc(b1-3)Gal(b1-4)GlcNAc(b1-3)Gal(b1-4)GlcNAc(b1-6)]Man(a1-6)[GlcNAc(b1-3)Gal(b1-4)GlcNAc(b1-3)Gal(b1-4)GlcNAc(b1-2)Man(a1-3)]Man(b1-4)GlcNAc(b1-4)[Fuc(a1-6)]GlcNAc
Summary of the method: as §1

[32] = biological target: GlcNAc(b1-3)Gal(b1-4)GlcNAc(b1-3)Gal(b1-4)GlcNAc(b1-3)Gal(b1-4)GlcNAc(b1-2)Man(a1-3)[GlcNAc(b1-3)Gal(b1-4)GlcNAc(b1-3)Gal(b1-4)GlcNAc(b1-3)Gal(b1-4)GlcNAc(b1-2)Man(a1-6)]Man(b1-4)GlcNAc(b1-4)GlcNAc
Summary of the method: as §1

[33] = biological target: GlcNAc(b1-3)Gal(b1-4)GlcNAc(b1-3)Gal(b1-4)GlcNAc(b1-3)Gal(b1-4)GlcNAc(b1-2)Man(a1-3)[GlcNAc(b1-3)Gal(b1-4)GlcNAc(b1-3)Gal(b1-4)GlcNAc(b1-3)Gal(b1-4)GlcNAc(b1-2)Man(a1-6)]Man(b1-4)GlcNAc(b1-4)[Fuc(a1-6)]GlcNAc
Summary of the method: as §1

[34] = biological target: GlcNAc(b1-3)Gal(b1-4)GlcNAc(b1-3)Gal(b1-4)GlcNAc(b1-3)Gal(b1-4)GlcNAc(b1-2)[GlcNAc(b1-3)Gal(b1-4)GlcNAc(b1-3)Gal(b1-4)GlcNAc(b1-3)Gal(b1-4)GlcNAc(b1-6)]Man(a1-6)[GlcNAc(b1-3)Gal(b1-4)GlcNAc(b1-3)Gal(b1-4)GlcNAc(b1-3)Gal(b1-4)GlcNAc(b1-2)Man(a1-3)]Man(b1-4)GlcNAc(b1-4)[Fuc(a1-6)]GlcNAc
Summary of the method: as §1

[35] = biological target: GlcNAc(b1-3)Gal(b1-4)GlcNAc(b1-3)Gal(b1-4)GlcNAc(b1-3)Gal(b1-4)GlcNAc(b1-3)Gal(b1-4)GlcNAc(b1-2)Man(a1-3)[GlcNAc(b1-3)Gal(b1-4)GlcNAc(b1-3)Gal(b1-4)GlcNAc(b1-3)Gal(b1-4)GlcNAc(b1-3)Gal(b1-4)GlcNAc(b1-2)Man(a1-6)]Man(b1-4)GlcNAc(b1-4)GlcNAc
Summary of the method: as §1

[36] = biological target: GlcNAc(b1-3)Gal(b1-4)GlcNAc(b1-3)Gal(b1-4)GlcNAc(b1-3)Gal(b1-4)GlcNAc(b1-3)Gal(b1-4)GlcNAc(b1-2)Man(a1-3)[GlcNAc(b1-3)Gal(b1-4)GlcNAc(b1-3)Gal(b1-4)GlcNAc(b1-3)Gal(b1-4)GlcNAc(b1-3)Gal(b1-4)GlcNAc(b1-2)Man(a1-6)]Man(b1-4)GlcNAc(b1-4)[Fuc(a1-6)]GlcNAc
Summary of the method: as §1

[37] = biological target: GlcNAc(b1-3)Gal(b1-4)GlcNAc(b1-3)Gal(b1-4)GlcNAc(b1-3)Gal(b1-4)GlcNAc(b1-3)Gal(b1-4)GlcNAc(b1-2)[GlcNAc(b1-3)Gal(b1-4)GlcNAc(b1-3)Gal(b1-4)GlcNAc(b1-3)Gal(b1-4)GlcNAc(b1-3)Gal(b1-4)GlcNAc(b1-6)]Man(a1-6)[GlcNAc(b1-3)Gal(b1-4)GlcNAc(b1-3)Gal(b1-4)GlcNAc(b1-3)Gal(b1-4)GlcNAc(b1-3)Gal(b1-4)GlcNAc(b1-2)Man(a1-3)]Man(b1-4)GlcNAc(b1-4)[Fuc(a1-6)]GlcNAc
Summary of the method: as §1

[38] = biological target: GlcNAc(b1-3)Gal(b1-4)GlcNAc(b1-3)Gal(b1-4)GlcNAc(b1-3)GalNAc
Summary of the method: as §1

B1: Pbx1 (Cryptococcus neoformans) (protein)
chain: ATTKCLVSGDQDSINNALALGGEGTTVTLCPGSVHRLNSSIIFTAPSQTLTTLGNPKDRNRAMLVVDGEDLACAIRADCKQCSHAMIRSLVIDGNRPQLLRIPKGDALIEVGNAESQTVRDCKLYEPRGWSALHFREGDERQCRFGHIVDNEIGPCGEEWDDEYDSMDETKPLWGNPRADGISLACKDSIVERNVVYDATDGAIVLFGSAGSTVKNNHVYARTRVILGGINLVDYEPWDGDYTNVKVHHNHLYALGRYFKVGIVIGPASWSDDTESVVHSASVTDNEFSGGYWGYGIVVASAKNFEVLRNKVIWDGEQGVARFSGVPGSRCPKAPENGKPTAFLINRGSAKGIFQDDFVNGEVQHIICLNPDQDPPYKPWRFRDSPEAIAAKQAENPTANSAFDSRIAEALVSYQMSLLNSMDAMTQKVEHLTNPIVDDALPFVHEHERAEADKKARQEASRKEKESGNKDVDMLNVKVEELEKSGRRLKKALDGLKSDFEGLSGRLKKSADENKPIIETIFVTSQNLLLGATSQQN
- glycan array binding signal (z-score) [1]: 0.515
- glycan array binding signal (z-score) [2]: -0.389
- glycan array binding signal (z-score) [3]: -0.204
- glycan array binding signal (z-score) [4]: -0.242
- glycan array binding signal (z-score) [5]: -0.314
- glycan array binding signal (z-score) [6]: 0.341
- glycan array binding signal (z-score) [7]: -0.066
- glycan array binding signal (z-score) [8]: 0.044
- glycan array binding signal (z-score) [9]: 0.062
- glycan array binding signal (z-score) [10]: 0.568
- glycan array binding signal (z-score) [11]: -0.301
- glycan array binding signal (z-score) [12]: -0.818
- glycan array binding signal (z-score) [13]: -0.554
- glycan array binding signal (z-score) [14]: -0.851
- glycan array binding signal (z-score) [15]: 0.401
- glycan array binding signal (z-score) [16]: -0.658
- glycan array binding signal (z-score) [17]: 0.498
- glycan array binding signal (z-score) [18]: -0.137
- glycan array binding signal (z-score) [19]: -0.848
- glycan array binding signal (z-score) [20]: -0.299
- glycan array binding signal (z-score) [21]: -0.639
- glycan array binding signal (z-score) [22]: 0.011
- glycan array binding signal (z-score) [23]: -0.993
- glycan array binding signal (z-score) [24]: -0.699
- glycan array binding signal (z-score) [25]: 0.1
- glycan array binding signal (z-score) [26]: -0.528
- glycan array binding signal (z-score) [27]: 1.68
- glycan array binding signal (z-score) [28]: -0.38
- glycan array binding signal (z-score) [29]: 0.7
- glycan array binding signal (z-score) [30]: 0.33
- glycan array binding signal (z-score) [31]: 0.673
- glycan array binding signal (z-score) [32]: 0.83
- glycan array binding signal (z-score) [33]: 1.29
- glycan array binding signal (z-score) [34]: -0.012
- glycan array binding signal (z-score) [35]: -0.206
- glycan array binding signal (z-score) [36]: 0.554
- glycan array binding signal (z-score) [37]: 1.2
- glycan array binding signal (z-score) [38]: -0.287
